{
  "source": "the supplement of paper PMC12423691",
  "binders": {"B1": {"name": "RFX5, P48382 (protein)", "chain": "MAEDEPDAKSPKTGGRAPPGGAEAGEPTTLLQRLRGTISKAVQNKVEGILQDVQKFSDNDKLYLYLQLPSGPTTGDKSSEPSTLSNEEYMYAYRWIRNHLEEHTDTCLPKQSVYDAYRKYCESLACCRPLSTANFGKIIREIFPDIKARRLGGRGQSKYCYSGIRRKTLVSMPPLPGLDLKGSESPEMGPEVTPAPRDELVEAACALTCDWAERILKRSFSSIVEVARFLLQQHLISARSAHAHVLKAMGLAEEDEHAPRERSSKPKNGLENPEGGAHKKPERLAQPPKDLEARTGAGPLARGERKKSVVESSAPGANNLQVNALVARLPLLLPRAPRSLIPPIPVSPPILAPRLSSGALKVATLPLSSRAGAPPAAVPIINMILPTVPALPGPGPGPGRAPPGGLTQPRGTENREVGIGGDQGPHDKGVKRTAEVPVSEASGQAPPAKAAKQDIEDTASDAKRKRGRPRKKSGGSGERNSTPLKSAAAMESAQSSRLPWETWGSGGEGNSAGGAERPGPMGEAEKGAVLAQGQGDGTVSKGGRGPGSQHTKEAEDKIPLVPSKVSVIKGSRSQKEAFPLAKGEVDTAPQGNKDLKEHVLQSSLSQEHKDPKATPP"}, "B2": {"name": "SNAI2, O43623 (protein)", "chain": "MPRSFLVKKHFNASKKPNYSELDTHTVIISPYLYESYSMPVIPQPEILSSGAYSPITVWTTAAPFHAQLPNGLSPLSGYSSSLGRVSPPPPSDTSSKDHSGSESPISDEEERLQSKLSDPHAIEAEKFQCNLCNKTYSTFSGLAKHKQLHCDAQSRKSFSCKYCDKEYVSLGALKMHIRTHTLPCVCKICGKAFSRPWLLQGHIRTHTGEKPFSCPHCNRAFADRSNLRAHLQTHSDVKKYQCKNCSKTFSRMSLLHKHEESGCCVAH"}, "B3": {"name": "NKX2-8, O15522 (protein)", "chain": "MATSGRLSFTVRSLLDLPEQDAQHLPRREPEPRAPQPDPCAAWLDSERGHYPSSDESSLETSPPDSSQRPSARPASPGSDAEKRKKRRVLFSKAQTLELERRFRQQRYLSAPEREQLASLLRLTPTQVKIWFQNHRYKLKRARAPGAAESPDLAASAELHAAPGLLRRVVVPVLVRDGQPCGGGGGGEVGTAAAQEKCGAPPAAACPLPGYPAFGPGSALGLFPAYQHLASPALVSWNW"}, "B4": {"name": "ZNF174, Q15697 (protein)", "chain": "MAAKMEITLSSNTEASSKQERHIIAKLEEKRGPPLQKNCPDPELCRQSFRRFCYQEVSGPQEALSQLRQLCRQWLQPELHTKEQILELLVMEQFLTILPPEIQARVRHRCPMSSKEIVTLVEDFHRASKKPKQWVAVCMQGQKVLLEKTGSQLGEQELPDFQPQTPRRDLRESSPAEPSQAGAYDRLSPHHWEKSPLLQEPTPKLAGTEAPRMRSDNKENPQQEGAKGAKPCAVSAGRSKGNGLQNPEPRGANMSEPRLSRRQVSSPNAQKPFAHYQRHCRVEYISSPLKSHPLRELKKSKGGKRSLSNRLQHLGHQPTRSAKKPYKCDDCGKSFTWNSELKRHKRVHTGERPYTCGECGNCFGRQSTLKLHQRIHTGEKPYQCGQCGKSFRQSSNLHQHHRLHHGD"}, "B5": {"name": "ZNF445, P59923 (protein)", "chain": "MPPGRWHAAYPAQAQSSRERGRLQTVKKEEEDESYTPVQAARPQTLNRPGQELFRQLFRQLRYHESSGPLETLSRLRELCRWWLRPDVLSKAQILELLVLEQFLSILPGELRVWVQLHNPESGEEAVALLEELQRDLDGTSWRDPGPAQSPDVHWMGTGALRSAQIWSLASPLRSSSALGDHLEPPYEIEARDFLAGQSDTPAAQMPALFPREGCPGDQVTPTRSLTAQLQETMTFKDVEVTFSQDEWGWLDSAQRNLYRDVMLENYRNMASLVGPFTKPALISWLEAREPWGLNMQAAQPKGNPVAAPTGDDLQSKTNKFILNQEPLEEAETLAVSSGCPATSVSEGIGLRESFQQKSRQKDQCENPIQVRVKKEETNFSHRTGKDSEVSGSNSLDLKHVTYLRVSGRKESLKHGCGKHFRMSSHHYDYKKYGKGLRHMIGGFSLHQRIHSGLKGNKKDVCGKDFSLSSHHQRGQSLHTVGVSFKCSDCGRTFSHSSHLAYHQRLHTQEKAFKCRVCGKAFRWSSNCARHEKIHTGVKPYKCDLCEKAFRRLSAYRLHRETHAKKKFLELNQYRAALTYSSGFDHHLGDQSGEKLFDCSQCRKSFHCKSYVLEHQRIHTQEKPYKCTKCRKTFRWRSNFTRHMRLHEEEKFYKQDECREGFRQSPDCSQPQGAPAVEKTFLCQQCGKTFTRKKTLVDHQRIHTGEKPYQCSDCGKDFAYRSAFIVHKKKHAMKRKPEGGPSFSQDTVFQVPQSSHSKEEPYKCSQCGKAFRNHSFLLIHQRVHTGEKPYKCRECGKAFRWSSNLYRHQRIHSLQKQYDCHESEKTPNVEPKILTGEKRFWCQECGKTFTRKRTLLDHKGIHSGEKRYKCNLCGKSYDRNYRLVNHQRIHSTERPFKCQWCGKEFIGRHTLSSHQRKHTRAAQAERSPPARSSSQDTKLRLQKLKPSEEMPLEDCKEACSQSSRLTGLQDISIGKKCHKCSICGKTFNKSSQLISHKRFHTRERPFKCSKCGKTFRWSSNLARHMKNHIRD"}, "B6": {"name": "MEIS3, Q99687 (protein)", "chain": "MARRYDELPHYPGIVDGPAALASFPETVPAVPGPYGPHRPPQPLPPGLDSDGLKREKDEIYGHPLFPLLALVFEKCELATCSPRDGAGAGLGTPPGGDVCSSDSFNEDIAAFAKQVRSERPLFSSNPELDNLMIQAIQVLRFHLLELEKVHDLCDNFCHRYITCLKGKMPIDLVIEDRDGGCREDFEDYPASCPSLPDQNNMWIRDHEDSGSVHLGTPGPSSGGLASQSGDNSSDQGDGLDTSVASPSSGGEDEDLDQERRRNKKRGIFPKVATNIMRAWLFQHLSHPYPSEEQKKQLAQDTGLTILQVNNWFINARRRIVQPMIDQSNRTGQGAAFSPEGQPIGGYTETQPHVAVRPPGSVGMSLNLEGEWHYL"}, "B7": {"name": "EGLN1, Q9GZT9 (protein)", "chain": "MANDSGGPGGPSPSERDRQYCELCGKMENLLRCSRCRSSFYCCKEHQRQDWKKHKLVCQGSEGALGHGVGPHQHSGPAPPAAVPPPRAGAREPRKAAARRDNASGDAAKGKVKAKPPADPAAAASPCRAAAGGQGSAVAAEAEPGKEEPPARSSLFQEKANLYPPSNTPGDALSPGGGLRPNGQTKPLPALKLALEYIVPCMNKHGICVVDDFLGKETGQQIGDEVRALHDTGKFTDGQLVSQKSDSSKDIRGDKITWIEGKEPGCETIGLLMSSMDDLIRHCNGKLGSYKINGRTKAMVACYPGNGTGYVRHVDNPNGDGRCVTCIYYLNKDWDAKVSGGILRIFPEGKAQFADIEPKFDRLLFFWSDRRNPHEVQPAYATRYAITVWYFDADERARAKVKYLTGEKGVRVELNKPSDSVGKDVF"}},
  "note": "The other results are listed elsewhere or left out. Binding of human transcription factors and regulators to the viral nucleoprotein by AlphaScreen, crude cell-free proteins, amounts not normalised, one pass. Fold of the Venus control; higher = more signal. No active / inactive call. Single-pass screen; sequences are the whole Swiss-Prot entries looked up by name.",
  "data": [
    {"target": "nucleoprotein N of Crimean-Congo hemorrhagic fever virus", "assay": "AlphaScreen luminescence signal relative to Venus negative control (fold); higher = stronger binding to CCHFV N", "method": "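AlphaScreen binding of cell-free made, FLAG-GST-tagged human transcription factors and regulators (crude translation products) to biotinylated N protein; signal as fold of the FLAG-GST-Venus control. One pass.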", "values": [
      {"binder": "B1", "AlphaScreen luminescence signal": 4.28},
      {"binder": "B2", "AlphaScreen luminescence signal": 2.47},
      {"binder": "B3", "AlphaScreen luminescence signal": 3.12},
      {"binder": "B4", "AlphaScreen luminescence signal": 3.07},
      {"binder": "B5", "AlphaScreen luminescence signal": 4.37},
      {"binder": "B6", "AlphaScreen luminescence signal": 1.3},
      {"binder": "B7", "AlphaScreen luminescence signal": 2.05}
    ]}
  ]
}
